Experimental data taken from paper PMC3196764 (Progress in retinal and eye research, 2011).

Target: light-activated unphosphorylated rhodopsin (UniProt P02699 1-348, light-activated)
Sequence of UniProt P02699 (P02699 whole entry): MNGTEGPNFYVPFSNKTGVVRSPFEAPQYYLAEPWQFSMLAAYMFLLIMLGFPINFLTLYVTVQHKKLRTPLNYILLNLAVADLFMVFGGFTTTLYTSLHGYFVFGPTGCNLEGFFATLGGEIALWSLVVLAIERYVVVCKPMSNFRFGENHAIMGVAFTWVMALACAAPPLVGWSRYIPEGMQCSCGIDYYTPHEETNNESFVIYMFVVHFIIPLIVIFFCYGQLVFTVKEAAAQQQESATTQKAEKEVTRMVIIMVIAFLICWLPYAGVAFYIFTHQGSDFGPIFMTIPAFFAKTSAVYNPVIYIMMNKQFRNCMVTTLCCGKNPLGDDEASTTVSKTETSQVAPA

percent of the maximum binding achieved at 37°C: 4%
B1: arrestin-1 R175E (natural protein)
chain: not shown
